Measured values: patent publication US9499612B2, “Antigen binding constructs” (Glaxo Group Limited, priority 2011, dated 2016)
Values belong to the molecule of their own block, whether it stands above or below them.

Tests used:
rhVEGF165 = target: T1, rhVEGF165 (Homo sapiens, UniProt P15692); test: BIACORE T100 SPR binding to VEGF165 at 37° C.; settings: for comment / Ka: Table 11B; for Ka: VEGF 128 nM to 0.03125 nM
T1 construct: made in house; host or cells: HEK293 cells, transient transfection
T1 sequence (P15692 27-191 isoform P15692-4): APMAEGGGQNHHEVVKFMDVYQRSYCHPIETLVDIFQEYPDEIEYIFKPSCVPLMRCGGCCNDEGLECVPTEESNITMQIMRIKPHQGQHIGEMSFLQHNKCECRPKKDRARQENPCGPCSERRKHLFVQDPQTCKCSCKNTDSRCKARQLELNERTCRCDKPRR
Description: (§1) The run was carried out at 37° C., using HBS-EP as the running buffer.
as §1, §1, §1, §1

[1] = target: T2, VEGF165 binding to VEGF R2 (Homo sapiens, UniProt P15692); test: Modified VEGF R2 receptor binding assay (no pre-incubation); settings: for inhibition achieved against VEGFR2: Example 26 text, summarising Table 8B; for Max. % Inhibition: Table 6B, VEGFR2
T2 construct: host or cells: insect cells, baculovirus (VEGF)
T2 sequence (P15692 27-191 isoform P15692-4): T1 sequence (P15692 27-191 isoform P15692-4)

[2] = tested on: VEGF165 induced proliferation of human umbilical vein endothelial cells; test: Human Umbilical Cord Endothelial Cell (HUVEC) proliferation assay; type: cell-based; settings: for EC50 compared to Bevacizumab (in words): Example 27, whole 96 well plate used
[3] = target: T3, VEGF165 binding to VEGF R1 (Homo sapiens, UniProt P15692); test: Modified VEGF R1 receptor binding assay (no pre-incubation); settings: Table 6A; VEGFR1
T3 construct: host or cells: insect cells, baculovirus (VEGF)
T3 sequence (P15692 27-191 isoform P15692-4): T1 sequence (P15692 27-191 isoform P15692-4)

inhibition achieved against VEGFR2 [1]: 75-87%
B2: DMS30025: Vk-Vk dAb-Fc-dAb (protein)
chain: DIQMTQSPSSLSASVGDRVTITCRASQWIGPELKWYQQKPGKAPKLLIYHGSILQSGVPSRFSGSGSGTDFTLTISSLQPEDFATYYCQQYMYYPHTFGQGTKVEIKRAS[human IgG1 Fc with T225P (EU numbers) not shown]GSTVAAPSGSTVAAPSGSTVAAPSGSDIQMTQSPSSLSASVGDRVTITCRASQWIGPELKWYQQKPGKAPKLLIYHGSILQSGVPSRFSGSGSGTDFTLTISSLQPEDFATYYCQQYMYYPHTFGQGTKVEIKR
modifications: DT02-K-044-085-AS-Fc (T113P)-GS(TVAAPSGS)x3 Linker-DT02-K-044-085 Vh-Vk dAb-Fc-dAb amino acid sequence identified using molecular biology techniques.
EC50 compared to Bevacizumab (in words) [2]: improved over Bevacizumab

inhibition achieved against VEGFR2 [1]: 75-87%
B4: DMS30009: Vk-Vk dAb-Fc-dAb (protein)
chain: DIQMTQSPSSLSASVGDRVTITCRASQWIGPELKWYQQKPGKAPKLLIYHGSILQSGVPSRFSGSGSGTDFTLTISSLQPEDFATYYCQQYMYYPHTFGQGTKVEIKR[human IgG1 Fc and a few adjoining residues not shown]EVDETYVPKEFNAETFTFHADDIQMTQSPSSLSASVGDRVTITCRASQWIGPELKWYQQKPGKAPKLLIYHGSILQSGVPSRFSGSGSGTDFTLTISSLQPEDFATYYCQQYMYYPHTFGQGTKVEIKR
modifications: DT02-K-044-085-AS Linker-Fc-Albumin Domain 3 Linker-DT02-K-044-085 Vk-Vk dAb-Fc-dAb amino acid sequence identified using molecular biology techniques.

inhibition achieved against VEGFR2 [1]: 75-87%
B5: DMS30008: Vh-Vk dAb-Fc-dAb (protein)
chain: [about 350 residues with a human IgG1 Fc not shown]EVDETYVPKEFNAETFTFHADDIQMTQSPSSLSASVGDRVTITCRASQWIGPELKWYQQKPGKAPKLLIYHGSILQSGVPSRFSGSGSGTDFTLTISSLQPEDFATYYCQQYMYYPETFGQGTKVEIKR
modifications: DOM15-26-597-AS Linker-Fc-Albumin Domain 3 Linker-DT02-K-044-251 Vh-Vk dAb-Fc-dAb amino acid sequence identified using molecular biology techniques.

inhibition achieved against VEGFR2 [1]: 75-87% | maximal inhibition ([1]; Example 40 text, data set of Table 13A): 78-84%
B7: DMS30023: Vk-Vk dAb-Fc-dAb (protein)
chain: DIQMTQSPSSLSASVGDRVTITCRASQWIGPELKWYQQKPGKAPKLLIYHGSILQSGVPSRFSGSGSGTDFTLTISSLQPEDFATYYCQQYMYYPHTFGQGTKVEIKRV[human IgG1 Fc with changes not shown]GSTVAAPSGSTVAAPSGSTVAAPSGSDIQMTQSPSSLSASVGDRVTITCRASQWIGPELKWYQQKPGKAPKLLIYHGSILQSGVPSRFSGSGSGTDFTLTISSLQPEDFATYYCQQYMYYPHTFGQGTKVEIKR
modifications: DT02-K-044-085-HingeIgG1Linker-Fc-GS(TVAAPSGS)x3 Linker-DT02-K-044-085 Vh-Vk dAb-Fc-dAb amino acid sequence identified using molecular biology techniques.
EC50 compared to Bevacizumab (in words) [2]: improved over Bevacizumab

comment (rhVEGF165): Biphasic curves
B8: DMS30028: Vk dAb-Fc, DT02-K-085 dAb attached to N-terminus of IgG1Fc by IgG1 Hinge linker (protein)
chain: DIQMTQSPSSLSASVGDRVTITCRASQWIGPELKWYQQKPGKAPKLLIYHGSILQSGVPSRFSGSGSGTDFTLTISSLQPEDFATYYCQQYMYYPHTFGQGTKVEIKRV[human IgG1 Fc with changes not shown]
modifications: N-terminal Fc fusion of K-044-085 DAB (IgG1 Hinge) amino acid sequence identified using molecular biology techniques.
notes: Vk dAb-Fc, DT02-K-085 dAb attached to N-terminus of IgG1Fc by IgG1 Hinge linker

Max. % Inhibition [1]: 86% | Max. % Inhibition [3]: 82% | fit of binding data (cell spanning ka, kd, KD) (rhVEGF165; Table 5, 37 °C): Poor fit to 1:1 model
B10: DMS30005: Vk dAb-Fc molecule (protein)
chain: ESTDIQMTQSPSSLSASVGDRVTITCRASQWIGPELKWYQQKPGKAPKLLIYHGSILQSGVPSRFSGSGSGTDFTLTISSLQPEDFATYYCQQYMYYPETFGQGTKVEIKRAA[human IgG1 Fc and a few adjoining residues not shown]
modifications: N-terminal Fc fusion of K-044-251 DAB (AAAS Linker) dAb-Fc amino acid sequence identified using molecular biology techniques.
notes: Vk dAb-Fc molecule
inhibition of VEGF driven HUVEC proliferation ([2]; Example 18): 70-80%

Further lines, the molecule ahead of its results:

B1: N085T2P: Vk dAb-Fc, DT02-K-085 dAb attached to N-terminus of IgG1Fc by T113P (T2P) or ASTHP linker (protein)
chain: DIQMTQSPSSLSASVGDRVTITCRASQWIGPELKWYQQKPGKAPKLLIYHGSILQSGVPSRFSGSGSGTDFTLTISSLQPEDFATYYCQQYMYYPHTFGQGTKVEIKRAS[human IgG1 Fc with T225P (EU numbers) not shown]
modifications: N-terminal Fc fusion of K-044-085 DAB (ASTHP linker) amino acid sequence identified using molecular biology techniques.
notes: Vk dAb-Fc, DT02-K-085 dAb attached to N-terminus of IgG1Fc by T113P (T2P) or ASTHP linker
comment (rhVEGF165): Biphasic curves | Ka (rhVEGF165; 37 °C): 9.40E+06 M − 1 · s − 1

B3: DMS30004: Vk Fc-dAb molecule (protein)
chain: [human IgG1 Fc and a few adjoining residues not shown]GSTVAAPSGSTVAAPSGSTVAAPSGSDIQMTQSPSSLSASVGDRVTITCRASQWIGPELKWYQQKPGKAPKLLIYHGSILQSGVPSRFSGSGSGTDFTLTISSLQPEDFATYYCQQYMYYPKTFGQGTKVEIKR
modifications: C-terminal Fc fusion of K-044-255 DAB (GS(TVAAPSGS)x3 Linker) Fc-dAb amino acid sequence identified using molecular biology techniques.
notes: Vk Fc-dAb molecule
Max. % Inhibition [1]: 90% | Max. % Inhibition [3]: 87-89%

B6: C085 helical: Vk Fc-dAb, DT02-K-085 dAb attached to IgG1Fc by C-terminal helical linker (protein)
chain: [human IgG1 Fc not shown]KEAAAKEAAAKEAAAKELAAKEAAAKEAAAKEAAAKELAADIQMTQSPSSLSASVGDRVTITCRASQWIGPELKWYQQKPGKAPKLLIYHGSILQSGVPSRFSGSGSGTDFTLTISSLQPEDFATYYCQQYMYYPHTFGQGTKVEIKR
modifications: C-terminal Fc fusion of K-044-085 DAB (Helical Linker) amino acid sequence identified using molecular biology techniques.
notes: Vk Fc-dAb, DT02-K-085 dAb attached to IgG1Fc by C-terminal helical linker
comment (rhVEGF165): Good fit to the 1:1 binding model | Ka (rhVEGF165; 37 °C): 1.00E+07 M − 1 · s − 1

B9: DMS300024: dAb-Fc-dAb molecule (protein)
chain: DIQMTQSPSSLSASVGDRVTITCRASQWIGPELKWYQQKPGKAPKLLIYHGSILQSGVPSRFSGSGSGTDFTLTISSLQPEDFATYYCQQYMYYPHTFGQGTKVEIKRASTA[human IgG1 Fc not shown]GSTVAAPSGSTVAAPSGSTVAAPSGSDIQMTQSPSSLSASVGDRVTITCRASQWIGPELKWYQQKPGKAPKLLIYHGSILQSGVPSRFSGSGSGTDFTLTISSLQPEDFATYYCQQYMYYPHTFGQGTKVEIKR
modifications: DT02-K-044-085-AS-Fc (H112A)-GS(TVAAPSGS)x3 Linker-DT02-K-044-085 Vh-Vk dAb-Fc-dAb amino acid sequence identified using molecular biology techniques.
notes: dAb-Fc-dAb molecule
EC50 compared to Bevacizumab (in words) [2]: improved over Bevacizumab
